About 4,300 (8.3%) of roughly 52,000 compounds were called active. No stated cut-off is given here; in the data, active means survival mostly below about 52% (no sharp cut-off); inactive means mostly above about 56%. The list shows a part of the results.
These molecules were tested on DeltatarO mutant (assay: S. aureus survival, RN4220 and DeltatarO strains – OD600, teichoic acid synthesis inhibitors, primary screen (AID 463173)). Conditions: S. aureus RN4220 wild type/DeltatarO growth, OD600, 18 h, active compounds read low, screened at 18.75 µg/mL (by protocol).

How did the survival turn out when `Cc1ccccc1Cn1cnc2ccccc21` was run?
Its survival is inactive: 77%.

For `N#Cc1ccc(CSc2nc3c(c(=O)[nH]2)CCC3)cc1`, which survival is on record?
Its survival is inactive: 67%.

With `COc1cc(NC(=O)CSc2nc(-c3ccc(C)cc3)nc3c2Cc2ccccc2O3)cc(OC)c1` as the molecule, how does the survival read?
Its survival is inactive: 85%.

How did the survival turn out when `O=C(NCc1ccccc1)c1ccc2c(c1)CCN2S(=O)(=O)c1ccccc1` was run?
Its survival is active: 36%.

How did the survival turn out when `CCCc1ccc(S(=O)(=O)N2CCC(Oc3ccc(-n4cnnn4)cc3)CC2)cc1` was run?
Its survival is inactive: 91%.

How did the survival turn out when `CNC(=O)c1ccc(Nc2nnc(-c3ccc(C)c(S(=O)(=O)N(C)C)c3)c3ccccc23)cc1` was run?
Its survival is inactive: 67%.

How did the survival turn out when `CCOC(=O)c1[nH]c(C)c(CCC(=O)NCc2ccccc2Cl)c1C` was run?
The survival was inactive: 91%.

How did the survival turn out when `Cc1ccc(NC(=O)CSc2nc(=O)n(CCCN(C)C)c3c2CCC3)cc1F` was run?
Its survival is inactive: 71%.

`CCCCC(CC)CNC(=O)C1CCC(CNS(=O)(=O)c2cccc3nsnc23)CC1` (centres undefined) was tested. Which survival did it give?
Its survival is inactive: 65%.

For `Cc1cc(C)cc(OCCCn2c(CCNC(=O)C3CCCCC3)nc3ccccc32)c1`, which survival is on record?
The survival was inactive: 35%.

Which survival does the source give for `COc1ccc(CCNC(=O)CCCn2c(=O)c3ccccc3n(Cc3c(C)cc(C)cc3C)c2=O)cc1OC` here?
Its survival is inactive: 89%.

Which survival does the source give for `CCC(=O)N1c2ccc(S(=O)(=O)N3CCC(C)CC3)cc2CC1C` (centres undefined) here?
The survival was inactive: 80%.

For `COc1ccc(NC(=O)CSc2oc(-c3ccco3)nc2S(=O)(=O)c2ccc(Br)cc2)c(OC)c1`, which survival is on record?
Its survival is inactive: 67%.

For `COc1ccc(-c2cc(C(=O)NCc3ccc(F)cc3)c3c(-c4ccc(F)cc4)[nH]nc3n2)cc1OC`, which survival is on record?
The survival was inactive: 72%.

With `CCc1ccc2oc(-c3cc(NC(=O)C(C)C)cc(C)c3O)nc2c1` as the molecule, how does the survival read?
Its survival is inactive: 92%.

How did the survival turn out when `CC(C)Cn1c(=O)c2sccc2n2c(CCCC(=O)NCc3ccccc3Cl)nnc12` was run?
Its survival is inactive: 76%.

With `C(=N\N1CCN(c2ccccn2)CC1)/c1ccco1` as the molecule, how does the survival read?
Its survival is inactive: 100%.

How did the survival turn out when `Cc1cccc(-c2nc3c4ccccc4nc(NCc4ccc(Cl)cc4)n3n2)c1` was run?
Its survival is active: 44%.

`CC(C)(C)OC(=O)N1C(C(=O)O)CSC1c1cccc(Br)c1` (centres undefined) was tested. Which survival did it give?
The survival was inactive: 101%.

How did the survival turn out when `CC(=O)c1ccc(NC(=O)CSc2cn(CC(=O)N3CCCCCC3)c3ccccc23)cc1` was run?
The survival was inactive: 101%.

For `Oc1ccc(Cl)cc1C1=Nc2ccccc2N=C(c2cccc(Br)c2)C1`, which survival is on record?
The survival was inactive: 151%.

With `CN1CCN(c2nc3c(S(=O)(=O)c4ccc(Br)cc4)nnn3c3ccsc23)CC1` as the molecule, how does the survival read?
Its survival is inactive: 58%.

How did the survival turn out when `COc1ccc(CCNc2nc(C)nc3c2nnn3Cc2ccccc2)cc1OC` was run?
The survival was inactive: 90%.

With `CCc1sc(Nc2cccc(Cl)c2C)nc1-c1cc2cccc(OC)c2oc1=O` as the molecule, how does the survival read?
The survival was inactive: 67%.

With `O=C(Nc1ccccc1Cl)c1cccs1` as the molecule, how does the survival read?
The survival was inactive: 88%.

How did the survival turn out when `COc1cccc(CN2CCc3nc(N4CCN(c5ncccn5)CC4)ncc3C2)c1` was run?
Its survival is inactive: 96%.

`O=C(CC1C(=O)OCCN1Cc1ccccc1)Nc1cccc(C(F)(F)F)c1` (centres undefined) was tested. Which survival did it give?
The survival was inactive: 74%.

With `COc1ccc(OC)c(NC(=O)c2cc(CN3CCCC3)on2)c1` as the molecule, how does the survival read?
Its survival is inactive: 101%.

For `COc1cccc(CNC(=O)C2CCN(S(=O)(=O)c3cn(C)cn3)CC2)c1`, which survival is on record?
The survival was inactive: 72%.

For `CC(=O)N1c2ccc(S(=O)(=O)N3CCCCCC3)cc2CC1C(=O)NCc1ccc(Cl)cc1` (centres undefined), which survival is on record?
The survival was inactive: 89%.

How did the survival turn out when `C=C(C)C1CC=C(C)/C(=N/NC(=O)c2ccncc2)C1` (centres undefined) was run?
Its survival is inactive: 124%.

With `CCOC(=O)N1CCC(NC(=O)c2cnn(-c3cccc(Cl)c3C)c2C2CCN(C(=O)OC(C)(C)C)CC2)CC1` as the molecule, how does the survival read?
The survival was active: 20%.

Which survival does the source give for `CCOc1ccc(NC(=O)Cn2ccn(-c3ccc(F)c(F)c3)c(=O)c2=O)cc1` here?
Its survival is inactive: 103%.

How did the survival turn out when `COc1ccc(CNC(=O)c2cccc(-n3cnc4cccnc43)c2C)cc1` was run?
Its survival is inactive: 90%.

With `COc1cccc(C(=O)Nc2ccc(-c3cn4cccnc4n3)cc2)c1OC` as the molecule, how does the survival read?
Its survival is inactive: 127%.

With `CCOCCSc1c(C)cnc2c1c(=O)n(C)c(=O)n2C` as the molecule, how does the survival read?
The survival was inactive: 90%.

With `Cc1ccc2c(c1)cc(CN(Cc1ccco1)C(=O)c1ccccc1)c1nnnn12` as the molecule, how does the survival read?
Its survival is inactive: 98%.

With `Cc1ccc(N2C(=O)c3[nH]nc(-c4ccc(Cl)cc4)c3C2c2ccc(F)cc2)cc1` (centres undefined) as the molecule, how does the survival read?
Its survival is active: 44%.

`COc1cc2ccccc2cc1C(=O)Nc1ccc(Cl)c(-c2nc3ccccc3o2)c1` was tested. Which survival did it give?
The survival was active: 40%.

Which survival does the source give for `Cc1ccc(NC(=O)C(=O)NCC(c2cccnc2)N2CCN(C)CC2)cc1F` (centres undefined) here?
The survival was inactive: 89%.

For `COC(=O)C(CCSC)NC(=O)c1c(C)oc2ncn(CC(C)C)c(=O)c12` (centres undefined), which survival is on record?
The survival was inactive: 73%.

With `CCOC(=O)c1ccc(NC(=O)c2ccc3c(c2)NC(=O)c2ccccc2S3)cc1` as the molecule, how does the survival read?
Its survival is inactive: 68%.

Which survival does the source give for `Cc1nc2ccccc2c(=O)n1NC(=O)c1ccccc1` here?
Its survival is inactive: 83%.

With `Cc1c(Cl)cccc1NC(=O)CSc1ncccc1C(=O)Oc1ccccc1Cl` as the molecule, how does the survival read?
The survival was inactive: 85%.

`Cc1ccc(N(CC(=O)Nc2cc(C)cc(C)c2)S(=O)(=O)c2cccc3nonc23)cc1` was tested. Which survival did it give?
The survival was inactive: 53%.

How did the survival turn out when `COc1ccccc1NC(=O)CN1C(=O)C2(SCC(=O)N2c2ccc(C)c(C)c2)c2ccccc21` (centres undefined) was run?
The survival was inactive: 95%.

For `CC1=C(c2ccc(C)cc2)S(=O)(=O)N(Cc2ccc(C(=O)Nc3ccc(F)cc3C)cc2)C1=O`, which survival is on record?
Its survival is inactive: 102%.

How did the survival turn out when `Cc1nc2ccc(NC(=S)NCCCO)cc2nc1C` was run?
The survival was inactive: 73%.

`NS(=O)(=O)c1ccc(NC(=O)c2ccc3c(c2)CCN3S(=O)(=O)c2ccccc2)cc1` was tested. Which survival did it give?
The survival was active: 43%.

With `O=CN1CCN(S(=O)(=O)c2ccc(S(=O)(=O)NC3CC3)cc2)CC1` as the molecule, how does the survival read?
The survival was inactive: 72%.

Which survival does the source give for `O=C(CSc1ccc(-c2ccc(F)cc2)nn1)N1CCOCC1` here?
The survival was inactive: 101%.

`CCn1ccc2cc(S(=O)(=O)N3CCC(C(=O)NCCc4ccc(C)cc4)CC3)ccc21` was tested. Which survival did it give?
The survival was inactive: 81%.

`COc1ccc(NC(=O)CSCc2cnn(-c3ccccc3)c2-n2cccc2)cc1` was tested. Which survival did it give?
The survival was inactive: 100%.

`CC(C)CNC(=O)Cc1ccccc1` was tested. Which survival did it give?
Its survival is inactive: 65%.

Which survival does the source give for `COc1ccc(Cc2nnc(SCC(=O)Nc3ccc(S(=O)(=O)N4CCCCCC4)cc3)o2)cc1` here?
The survival was inactive: 60%.

With `COc1cc(OC)cc(C(=O)NCC(c2cccs2)S(=O)(=O)c2ccc(F)c(C)c2)c1` (centres undefined) as the molecule, how does the survival read?
Its survival is inactive: 100%.

Which survival does the source give for `COc1cc(C(=O)N2CCN(CCc3ccccn3)CC2)cc(OC)c1OC` here?
The survival was inactive: 66%.

For `Cc1ccc(CNC(=O)Cn2cc(C(=O)c3ccc(F)cc3)c(=O)c3ccc(C)nc32)cc1`, which survival is on record?
The survival was active: 52%.

Which survival does the source give for `CCOC(=O)C1CCN(C(=O)C2CCN(C3=NS(=O)(=O)C(c4ccc(C)c(C)c4)=C3C)CC2)CC1` here?
The survival was inactive: 77%.

How did the survival turn out when `Cc1cccc(C2CC(=O)Oc3c2c(=O)n(C)c2ccccc32)c1` (centres undefined) was run?
The survival was inactive: 170%.

With `CCc1ccc(Cc2cnc(NC(=O)c3ccc4c(c3)CC(c3ccccc3)OC4=O)s2)cc1` (centres undefined) as the molecule, how does the survival read?
The survival was inactive: 51%.

`CC(C)c1ccc(C2N=C(N)Nc3nc4ccccc4n32)cc1` (centres undefined) was tested. Which survival did it give?
The survival was inactive: 101%.

Which survival does the source give for `CC(CC(=O)Nc1ccc(Br)cc1F)S(=O)(=O)c1ccc2c(c1)NC(=O)CO2` (centres undefined) here?
Its survival is inactive: 88%.

How did the survival turn out when `COc1ccc(C2NCCO2)cc1OC` (centres undefined) was run?
Its survival is inactive: 66%.

How did the survival turn out when `CSc1ncc(Cl)c(C(=O)N(Cc2ccc(N(C)C)cc2)Cc2ccco2)n1` was run?
Its survival is inactive: 80%.

How did the survival turn out when `O=C(O)CCc1ccc(-c2ccc(F)cc2)n1CCC(=O)O` was run?
Its survival is inactive: 103%.

With `Cc1c(Cl)cccc1NC(=O)C(C)n1nnc2sc3c(c2c1=O)CCCC3` (centres undefined) as the molecule, how does the survival read?
The survival was inactive: 80%.

With `Cc1c(C)n(C)c2ccc(C(=O)N3CCN(c4ccccc4)CC3)cc12` as the molecule, how does the survival read?
Its survival is inactive: 74%.

`CCCCOc1ccc(CNC(=O)CCCN2C(=O)CSc3c2c(C)nn3-c2ccccc2)cc1` was tested. Which survival did it give?
The survival was inactive: 72%.

`Cc1ccc2c(=O)cc(C(=O)Nc3ccc(S(=O)(=O)N4CCCCCC4)cc3)oc2c1C` was tested. Which survival did it give?
Its survival is inactive: 64%.

`Cc1cc(C)cc(NC(=O)Cn2c(=O)c3ccccc3n3nncc23)c1` was tested. Which survival did it give?
Its survival is inactive: 83%.

With `O=C(Nc1nc2ccc(F)cc2s1)c1nc(S(=O)(=O)Cc2ccccc2)ncc1Cl` as the molecule, how does the survival read?
Its survival is active: 17%.

How did the survival turn out when `CCOC(=O)c1c(NC(C)=O)c2c3c(sc2n1Cc1nc(-c2ccccc2C)oc1C)CCCC3` was run?
The survival was inactive: 97%.

For `COc1ccc(NC(=O)CSc2nc3c(oc4ccccc43)c(=O)n2-c2ccc(C)c(C)c2)cc1`, which survival is on record?
The survival was inactive: 82%.

With `O=C(c1ccc2c(c1)N(Cc1ccc(Cl)cc1)C(=O)c1ccccc1S2(=O)=O)N1CCCCC1` as the molecule, how does the survival read?
The survival was inactive: 121%.

With `COc1ccc(CNCCC2(O)CC(C)N(C)CC2C)cc1OC` (centres undefined) as the molecule, how does the survival read?
The survival was inactive: 94%.

Which survival does the source give for `O=C(CN1C(=O)CCSc2ccccc21)Nc1ccccc1F` here?
The survival was inactive: 85%.

With `CCOc1ccc(CCNC(=O)C2COc3ccccc3C2)cc1OCC` (centres undefined) as the molecule, how does the survival read?
The survival was active: 0%.

With `Cc1ccc(-n2c(=O)c3oc4ccccc4c3n(Cc3ccccc3F)c2=O)cc1C` as the molecule, how does the survival read?
The survival was inactive: 104%.

With `O=C(Cn1c(=O)n(-c2ccc(F)c(Cl)c2)c(=O)c2sc3ccccc3c21)NC1CCCC1` as the molecule, how does the survival read?
Its survival is inactive: 93%.

For `CCC(C)NC(=O)C(=O)Nc1c2c(nn1-c1ccccc1)CS(=O)(=O)C2` (centres undefined), which survival is on record?
The survival was inactive: 82%.

For `CN(C)c1cc(Nc2ccc(Cl)cc2)c2c3c(onc13)-c1ccccc1C2=O`, which survival is on record?
The survival was inactive: 91%.

How did the survival turn out when `COc1ccc(CNC(=O)c2cc3c(s2)-c2ccccc2OC3)cc1` was run?
The survival was inactive: 64%.

How did the survival turn out when `Cc1ccccc1OCc1nnc(SCc2cc(=O)c3ccccc3[nH]2)n1C` was run?
The survival was inactive: 97%.

With `COc1ccc(N(CC(=O)NCCc2cccc(C)c2)S(=O)(=O)c2c(C)nn(C)c2C)cc1` as the molecule, how does the survival read?
Its survival is inactive: 59%.

With `COc1ccccc1N1CCN(C(CNC(=O)C(=O)NCCCN(C)C)c2cccnc2)CC1` (centres undefined) as the molecule, how does the survival read?
Its survival is active: 61%.

`CCOC(=O)C1=C(CS(=O)(=O)c2c(C)cc(C)cc2C)NC(=O)NC1c1cccc(OC)c1` (centres undefined) was tested. Which survival did it give?
Its survival is inactive: 58%.

Which survival does the source give for `Cc1ccn(C(=O)c2ccc(NC(=O)C3CCCCC3)cc2)n1` here?
Its survival is inactive: 96%.

With `O=C1CC(c2ccccc2C(F)(F)F)c2c(c3ccccc3[nH]c2=O)O1` (centres undefined) as the molecule, how does the survival read?
Its survival is inactive: 82%.

From PubChem BioAssay AID463173 (ICCB-Longwood Screening Facility, Harvard Medical School, 2010)
